Reference: patent US20140248292A1, “COMPOSITIONS AND METHODS FOR TREATING CANCER” (priority 2013, published 2014)
Values joined by “and” are separate entries in the source; they are usually repeats but may differ in a detail not shown here. Identical values can stand only once. Like-named read-outs stand apart in the source and are kept apart here.

Columns and labels:
PMCA-2 model = details: for Days until sacrifice (mean) / Mucin (g), mean (SD): PMCA-2; for Tumor growth/total number of animals / mean growth index: ip
PMCA-3 model = details: for Days until sacrifice (mean) / Mucin (g), mean (SD): day 1; for Tumor growth/total number of animals: mouse, in vivo, ip
PMP-2 model = assay: In vivo tumor growth, orthotopic PMP-2 model, single injection; details: day 1
PMP-1 model = assay: In vivo tumor growth, orthotopic PMP-1 model, single i.p. injection; details: day 1
PMCA-1 model = assay: In vivo tumor growth, orthotopic PMCA-1 model, single i.p. injection; details: day 1
[1] = single i.p. dose, PMCA-2 model, data not shown
[2] = single i.p. dose 2.5 mg/kg, day 1
[3] = single i.p. dose 5 mg/kg, Day 6
[4] = single i.p. dose 5 mg/kg, day 1
[5] = PMCA-3, single i.p. dose 2.5 mg/kg
[6] = PMCA-3, single i.p. dose 5 mg/kg
[7] = single i.p. dose 10 mg/kg, Day 6
[8] = single i.p. dose 10 mg/kg, day 1
[9] = PMCA-3, single i.p. dose 10 mg/kg

For `CO[C@@]12[C@H](COC(N)=O)C3=C(C(=O)C(C)=C(N)C3=O)N1C[C@@H]1N[C@@H]12` [Mitomycin C, mitomycin C], which “Days until sacrifice (mean)” value (PMCA-2 model; [2]) is on record?
The value was 106 days.

And the “Mucin (g), mean (SD)” value (PMCA-2 model; [2])?
The value was 1 (0.6) g.

What about the “Days until sacrifice (mean)” value (PMCA-2 model; [3]) of the same molecule?
The value was 106 days.

And the “Mucin (g), mean (SD)” value (PMCA-2 model; [3])?
The value was 0.1 (0.3) g.

What about the “Days until sacrifice (mean)” value (PMCA-2 model; [4]) of the same molecule?
Its value is 103 days.

What about the “Mucin (g), mean (SD)” value (PMCA-2 model; [4]) of the same molecule?
Its value is 0.02 (0.1) g.

What about the tumor growth (PMCA-2 model; mouse, in vivo) of the same molecule?
The tumor growth was “inhibited tumor growth, but clearly less effectively than the higher doses”.

What about the “Tumor growth/total number of animals” value (PMCA-2 model; mouse, in vivo, 2.5 mg/kg) of the same molecule?
Its value is 1/3.

What about the “Tumor growth/total number of animals” value (PMCA-2 model; mouse, in vivo, 5 mg/kg) of the same molecule?
The value was 1/11 and 1/5.

What about the “efficacy, comparison of doses” value (PMCA-3 model; PMCA-3, 5 mg/kg vs 2.5 mg/kg i.p.) of the same molecule?
The value was 5 mg/kg was more efficacious than 2.5 mg/kg.

What about the “Days until sacrifice (mean)” value (PMCA-3 model; [5]) of the same molecule?
Its value is 102 days.

And the “Mucin (g), mean (SD)” value (PMCA-3 model; [5])?
Its value is 1.2 (2.4) g.

What about the “Days until sacrifice (mean)” value (PMCA-3 model; [6]) of the same molecule?
Its value is 112 days.

And the “Mucin (g), mean (SD)” value (PMCA-3 model; [6])?
Its value is 0 g.

What about the “Tumor growth/total number of animals” value (PMCA-3 model; 2.5 mg/kg) of the same molecule?
The value was 4/6.

What about the “Tumor growth/total number of animals” value (PMCA-3 model; 5 mg/kg) of the same molecule?
The value was 0/5.

What about the “Days until sacrifice (mean)” value (PMP-2 model; single i.p. dose 2.5 mg/kg) of the same molecule?
The value was 111 days.

What about the “Mucin (g), mean (SD)” value (PMP-2 model; single i.p. dose 2.5 mg/kg) of the same molecule?
Its value is 0.7 (0.4) g.

What about the “Tumor growth/total number of animals” value (PMP-2 model; single i.p. dose 2.5 mg/kg) of the same molecule?
Its value is 0/6.

What about the “Days until sacrifice (mean)” value (PMP-2 model; single i.p. dose 5 mg/kg) of the same molecule?
Its value is 111 days.

What about the “Mucin (g), mean (SD)” value (PMP-2 model; single i.p. dose 5 mg/kg) of the same molecule?
The value was 0.5 (0.7) g.

And the “Tumor growth/total number of animals” value (PMP-2 model; single i.p. dose 5 mg/kg)?
Its value is 0/6.

What about the “Days until sacrifice (mean)” value (PMP-1 model; single i.p. dose 2.5 mg/kg) of the same molecule?
The value was 110 days.

What about the “Mucin (g), mean (SD)” value (PMP-1 model; single i.p. dose 2.5 mg/kg) of the same molecule?
The value was 0 g.

And the “Tumor growth/total number of animals” value (PMP-1 model; single i.p. dose 2.5 mg/kg)?
Its value is 0/6.

And the “Days until sacrifice (mean)” value (PMP-1 model; single i.p. dose 5 mg/kg)?
The value was 100 days.

And the “Mucin (g), mean (SD)” value (PMP-1 model; single i.p. dose 5 mg/kg)?
The value was 1.0 (2.3) g.

What about the “Tumor growth/total number of animals” value (PMP-1 model; single i.p. dose 5 mg/kg) of the same molecule?
Its value is 1/6.

And the “Days until sacrifice (mean)” value (PMCA-1 model; single i.p. dose 2.5 mg/kg)?
The value was 94 days.

And the “Mucin (g), mean (SD)” value (PMCA-1 model; single i.p. dose 2.5 mg/kg)?
Its value is 1.5 (2.3) g.

What about the “Tumor growth/total number of animals” value (PMCA-1 model; single i.p. dose 2.5 mg/kg) of the same molecule?
The value was 3/6.

What about the “Days until sacrifice (mean)” value (PMCA-1 model; single i.p. dose 5 mg/kg) of the same molecule?
The value was 98 days.

What about the “Mucin (g), mean (SD)” value (PMCA-1 model; single i.p. dose 5 mg/kg) of the same molecule?
Its value is 1 (2.6) g.

And the “Tumor growth/total number of animals” value (PMCA-1 model; single i.p. dose 5 mg/kg)?
The value was 1/6.

With `O=C1[O][Pt]2([NH][C@@H]3CCCC[C@H]3[NH]2)[O]C1=O` [Oxaliplatin, oxaliplatin] as the molecule, how does the “Days until sacrifice (mean)” value (PMCA-2 model; [4]) read?
The value was 44 days.

And the “Mucin (g), mean (SD)” value (PMCA-2 model; [4])?
Its value is 4.9 (0.8) g.

And the “Days until sacrifice (mean)” value (PMCA-2 model; [7])?
Its value is 74 days.

What about the “Mucin (g), mean (SD)” value (PMCA-2 model; [7]) of the same molecule?
The value was 5.8 (1.6) g.

What about the “Days until sacrifice (mean)” value (PMCA-2 model; [8]) of the same molecule?
The value was 76 days.

What about the “Mucin (g), mean (SD)” value (PMCA-2 model; [8]) of the same molecule?
Its value is 4.5 (1.4) g.

And the “Tumor growth/total number of animals” value (PMCA-2 model; mouse, in vivo, 5 mg/kg)?
Its value is 6/6.

What about the mean growth index (PMCA-2 model; mouse, in vivo, 5 mg/kg) of the same molecule?
Its mean growth index is “equal to that of untreated animals”.

What about the “Tumor growth/total number of animals” value (PMCA-2 model; mouse, in vivo, 10 mg/kg) of the same molecule?
Its value is 10/10 and 4/4.

What about the mean growth index (PMCA-2 model; mouse, in vivo, 10 mg/kg) of the same molecule?
Its mean growth index is 7.0.

And the “Days until sacrifice (mean)” value (PMCA-3 model; [9])?
The value was 63 days.

What about the “Mucin (g), mean (SD)” value (PMCA-3 model; [9]) of the same molecule?
The value was 5.3 (1.2) g.

And the “Tumor growth/total number of animals” value (PMCA-3 model; 10 mg/kg)?
The value was 6/6.

What about the highest tolerated dose [1] of the same molecule?
The highest tolerated dose was 10 mg/kg.

What about the “Days until sacrifice (mean)” value (PMP-2 model; single i.p. dose 10 mg/kg) of the same molecule?
The value was 74 days.

What about the “Mucin (g), mean (SD)” value (PMP-2 model; single i.p. dose 10 mg/kg) of the same molecule?
Its value is 4.3 (2.3) g.

What about the “Tumor growth/total number of animals” value (PMP-2 model; single i.p. dose 10 mg/kg) of the same molecule?
The value was 5/6.

And the “Days until sacrifice (mean)” value (PMP-1 model; single i.p. dose 10 mg/kg)?
The value was 68 days.

And the “Mucin (g), mean (SD)” value (PMP-1 model; single i.p. dose 10 mg/kg)?
Its value is 4.7 (0.7) g.

And the “Tumor growth/total number of animals” value (PMP-1 model; single i.p. dose 10 mg/kg)?
Its value is 6/6.

What about the “Days until sacrifice (mean)” value (PMCA-1 model; single i.p. dose 10 mg/kg) of the same molecule?
The value was 68 days.

What about the “Mucin (g), mean (SD)” value (PMCA-1 model; single i.p. dose 10 mg/kg) of the same molecule?
The value was 4.7 (2.4) g.

What about the “Tumor growth/total number of animals” value (PMCA-1 model; single i.p. dose 10 mg/kg) of the same molecule?
Its value is 6/6.
